Test results: the supplement of paper PMC3334620
The full ranking holds about 33,000 sequences; the median of “E-score (-0.5 to 0.5)” is about -0.016, and the highest 2% start at about 0.32. The list shows a part of the results.

molecular target: T1, Stp1 (UniProt B3LFK1); test: PBM E-score (8-mer binding enrichment) (E-score (-0.5 to 0.5)); higher = stronger / more preferred TF binding; most listed sequences are background and not binding sites; conditions: protein concentration: 200 nM; construct: GST-full length
T1 sequence: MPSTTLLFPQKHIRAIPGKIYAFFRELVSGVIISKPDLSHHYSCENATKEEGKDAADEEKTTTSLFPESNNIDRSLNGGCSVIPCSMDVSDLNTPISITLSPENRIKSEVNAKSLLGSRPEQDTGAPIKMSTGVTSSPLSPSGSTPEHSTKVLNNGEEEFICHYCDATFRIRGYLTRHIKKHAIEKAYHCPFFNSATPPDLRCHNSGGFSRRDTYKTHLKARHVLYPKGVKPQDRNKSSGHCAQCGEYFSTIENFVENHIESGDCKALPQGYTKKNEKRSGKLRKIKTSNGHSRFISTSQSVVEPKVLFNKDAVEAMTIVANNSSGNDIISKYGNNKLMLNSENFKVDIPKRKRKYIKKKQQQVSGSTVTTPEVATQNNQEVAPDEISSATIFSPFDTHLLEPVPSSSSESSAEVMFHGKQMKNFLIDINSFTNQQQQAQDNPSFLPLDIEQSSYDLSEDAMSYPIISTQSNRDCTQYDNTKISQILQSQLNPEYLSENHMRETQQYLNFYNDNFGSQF
Method in brief: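 E-scores (a modified Wilcoxon-Mann-Whitney statistic) were assigned by the Universal PBM Analysis Suite to every ungapped eight-base word pooled with its reverse complement. The input came from universal all-10-mer Agilent arrays made double-stranded by primer extension and probed with GST-tagged yeast transcription factors at about 100-200 nM. Fluorescent anti-GST detected bound protein, and masliner normalised the scans.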

| Sequence | PBM E-score |
| --- | --- |
| AGAATTGC | 0.08 |
| CAATAACA | 0.0711 |
| CCAAGGAC | -0.0498 |
| CAAGCTGC | 0.0162 |
| AGTGCTAC | -0.155 |
| ATGTCCGC | 0.0811 |
| CTGTCTGA | 0.0893 |
| TCTGTCAA | 0.13 |
| CCCTAGGA | -0.314 |
| AGGTACAT | -0.148 |
| CTCGTATC | 0.0757 |
| CAACAGTC | -0.0399 |
| CGGTTTCC | 0.0565 |
| AATCACGA | -0.117 |
| CACAAAAC | 0.0388 |
| CCCCATCC | -0.0257 |
| GAATTATC | 0.0699 |
| CGTGCATA | 0.168 |
| TTAGATAA | -0.0192 |
| TCGGACAA | 0.0763 |
| GACATCGC | -0.25 |
| ATAAGGTG | 0.111 |
| ATGGTCCA | -0.133 |
| TATACTCA | -0.0648 |
| ACGAACCC | -0.0646 |

| Sequence | PBM E-score |
| --- | --- |
| CCGAAGAA | 0.0221 |
| AGTCCTTC | -0.35 |
| ATAGGAAA | 0.0095 |
| GCCAAACC | -0.221 |
| GTGAGACA | -0.0539 |
| ATCCTATC | -0.00077 |
| AGTCAGTA | 0.134 |
| ATAATTTC | 0.24 |
| GCTCCTCA | -0.106 |
| CAAAGCAA | 0.136 |
| CGAGCGGC | 0.416 |
| CGATGCCG | 0.415 |
| CCCATCCA | 0.00825 |
| AATTCCGG | 0.0797 |
| AGTCAGTC | -0.089 |
| GAGCTAAC | -0.0397 |
| ACCCCAAT | -0.242 |
| GCCGGCCA | -0.0401 |
| ACTCAACC | -0.0254 |
| CCCGCGTA | -0.0603 |
| TACCGGAA | -0.0487 |
| CTCGGTAC | -0.335 |
| CCCGACAA | 0.13 |
| AGTAGAGA | -0.0676 |
| CTAGGACC | -0.409 |

| Sequence | PBM E-score |
| --- | --- |
| GAGCGGGC | -0.0929 |
| ATGGGCAC | 0.232 |
| AGGATGAA | -0.154 |
| CGTCTGTA | 0.00232 |
| AGTATAAA | 0.297 |
| GCGCTCAC | 0.0573 |
| ACAATGGG | -0.134 |
| AGTCCCGG | -0.236 |
| GAAACCCA | 0.0619 |
| CTTAACAA | 0.169 |
| AAAGCTCA | -0.152 |
| AGACAATC | 0.0749 |
| AAGCCTAG | -0.0261 |
| CTGCACGC | -0.0205 |
| ACAGATCG | 0.0507 |
| GCGCTATA | 0.0289 |
| AGCTGCGG | 0.0478 |
| CACGTTAA | 0.103 |
| TGAGACCA | -0.118 |
| ATCTGTTG | -0.049 |
| GACACAAA | 0.2 |
| CCTTTCTA | 0.165 |
| CGTAGGAC | -0.0121 |
| AGGCGAGA | -0.0565 |
| AGAATGAG | -0.145 |

| Sequence | PBM E-score |
| --- | --- |
| ACAAGAAA | 0.118 |
| ACCAGGAC | -0.0533 |
| ACTCACCG | -0.125 |
| CGACTAGA | -0.157 |
| CCAGGCTA | -0.284 |
| AGAATCAC | 0.12 |
| CCACGTCG | -0.27 |
| ACAACGGG | 0.0834 |
| GCTTACTA | 0.102 |
| CGCGATAC | 0.00474 |
| AATCCATA | 0.0806 |
| CGGAATCC | -0.0886 |
| CTCGTGCA | -0.0129 |
| CTTGAGCA | 0.0418 |
| ACGGCAAT | 0.45 |
| CCGACGGA | -0.107 |
| GTAGGACA | -0.0209 |
| CATTTGAC | 0.0371 |
| GAAAATTA | -0.0415 |
| GGAACAAA | 0.105 |
| GCGACTCA | -0.0205 |
| GTCCCAAA | -0.122 |
| CTAACTAC | -0.0793 |
| TCACGTGA | 0.211 |
| CAGGCTCG | -0.0929 |

| Sequence | PBM E-score |
| --- | --- |
| ACTTCAGG | 0.0136 |
| AGAACATA | 0.00125 |
| ATACGAGC | 0.118 |
| GTTCTGTA | 0.0215 |
| CATACTGG | -0.0651 |
| ATACTGAA | 0.101 |
| AACACCTG | 0.00724 |
| AGCCGCCG | 0.361 |
| ATCATACG | 0.196 |
| AAGGAACG | 0.0123 |
| TAAAAAGA | 0.0945 |
| ACGTGCGC | 0.165 |
| CTTGACAC | -0.064 |
| ATCCGGCC | -0.213 |
| GCCCTATA | 0.206 |
| CATGCTGA | -0.107 |
| CAACGCCA | 0.0795 |
| TTCCCAAA | 0.0505 |
| CGTGATTA | -0.00773 |
| CCAGGCGC | -0.113 |
| GAGTTAAC | -0.0768 |
| AGGCTATG | -0.196 |
| GAACATCA | -0.0725 |
| GCTCGTCC | -0.0754 |
| ATGTGTAA | 0.00541 |

| Sequence | PBM E-score |
| --- | --- |
| CAGTGCGC | -0.175 |
| ACGACGAC | -0.0442 |
| GAAGCATC | -0.213 |
| CCAATGGA | -0.0655 |
| CAGCTGGC | -0.0206 |
| CGTTGACC | 0.0297 |
| ACCCCAGG | -0.221 |
| CTTAACGC | -0.0215 |
| AACCAGCT | -0.0344 |
| AGTCAGAT | -0.194 |
| CTGGAACC | -0.275 |
| AGGTCTAT | -0.115 |
| AGATCAAT | 0.0248 |
| TCTCGAGA | -0.01 |
| ACCGCAGA | -0.0884 |
| GCTTATAA | 0.163 |
| CATAAGCA | -0.186 |
| TAACACCA | 0.0396 |
| AACATACT | 0.00864 |
| ACATGTTA | 0.0118 |
| CTAGTATC | -0.00688 |
| AGCCGAGG | 0.142 |
| AATTTGAA | 0.105 |
| GATCTAGC | -0.0987 |
| CCGATAAG | -0.0367 |

| Sequence | PBM E-score |
| --- | --- |
| CTATATGC | 0.00966 |
| CGACGCTA | -0.0819 |
| CCCGTGCA | 0.0223 |
| CCTCAGAG | -0.135 |
| GATTGAAA | 0.0968 |
| AGCCTTAG | 0.096 |
| AGGTGTGC | -0.0377 |
| ACATTATG | 0.0757 |
| ATAGTGGC | -0.0666 |
| ATAGGGGG | -0.349 |
| AGTGGAGA | -0.0407 |
| CTCACGAC | -0.128 |
| AAGGCTGG | -0.295 |
| CCCAAAAG | -0.0623 |
| AGTCTGGC | -0.207 |
| CGAACATC | -0.0281 |
| GTCCCAGA | -0.209 |
| ACGACAGT | -0.00493 |
| AATACTCA | 0.227 |
| TACGCGCA | 0.139 |
| GATCCTTA | -0.093 |
| AATACGGT | 0.0778 |
